Lines with a small IC50 respond at low doses; fits outside the tested doses are given as limits. AUC is the area under the same curve over the 256-fold range up to the top dose, as a fraction; the more sensitive the line, the further below 1. For some assays here: Where the top dose is marked as inferred, it was derived from the fitted curves, not read from the paper. For some assays here: An entry number marks a drug with two screens in the source, which often give different values.
Columns and labels:
Assay in all cases: Viability of human cancer cell lines after 72 h of drug (GDSC screen)
Epothilone B = compound: C/C(=C\c1csc(C)n1)[C@@H]1C[C@@H]2O[C@]2(C)CCC[C@H](C)[C@H](O)[C@@H](C)C(=O)C(C)(C)[C@@H](O)CC(=O)O1 [Epothilone B]; details: top dose 0.032 µM; top dose inferred
Protocol: (§1)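 Human cancer cell lines in 384-well plates, medium with 10% serum, drug for 72 h over a 256-fold dose range (nine 2-fold or five 4-fold steps up to the top dose). Adherent lines were fixed and stained with the nucleic acid dye Syto60, suspension lines read with resazurin; signal relative to control wells, capped at 0 and 100%. One two-parameter sigmoid per drug and line, fitted in a mixed model over all curves with the slope shared within a line.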

Y-39983 = compound: C[C@@H](N)c1ccc(C(=O)Nc2ccnc3[nH]ccc23)cc1 [Y-39983]; details: top dose 20 µM; top dose inferred
Protocol: as §1

PLX4720 = compound: CCCS(=O)(=O)Nc1ccc(F)c(C(=O)c2c[nH]c3ncc(Cl)cc23)c1F [PLX4720]; details: top dose 10 µM
Protocol: as §1

PHA-793887 = compound: CC(C)CC(=O)Nc1n[nH]c2c1CN(C(=O)C1CCN(C)CC1)C2(C)C [PHA-793887]; details: top dose 10.24 µM
Protocol: as §1

TPCA-1 = compound: NC(=O)Nc1sc(-c2ccc(F)cc2)cc1C(N)=O [TPCA-1]; details: top dose 20 µM
Protocol: as §1

[1] = screen: GDSC drug entry 1371, top dose inferred

Row | Cell Line | AUC (Epothilone B) | IC50 (Epothilone B) [µM] | AUC (Y-39983) | IC50 (Y-39983) [µM] | AUC (PLX4720; screen: GDSC drug entry 1036) | IC50 (PLX4720; screen: GDSC drug entry 1036) [µM] | AUC (PLX4720; [1]) | IC50 (PLX4720; [1]) [µM] | AUC (PHA-793887) | IC50 (PHA-793887) [µM] | AUC (TPCA-1) | IC50 (TPCA-1) [µM]
1 | BICR22 (head and neck, adherent) | 0.751 | 0.012 | 0.975 | > 20 | 0.856 | > 10 | 0.929 | > 10 | 0.906 | > 10.2 | 0.976 | > 20
2 | BICR78 (head and neck, adherent) | 0.719 | 0.00931 | 0.982 | > 20 | 0.967 | > 10 | 0.972 | > 10 | 0.951 | > 10.2 | 0.935 | > 20
3 | BPH-1 (prostate, adherent) | 0.319 | 0.000587 | 0.982 | > 20 | 0.978 | > 10 | 0.98 | > 10 | 0.161 | 0.0508 | 0.733 | 6.24
4 | BT-20 (breast, adherent) | 0.641 | 0.00542 | 0.954 | > 20 | 0.962 | > 10 | 0.982 | > 10 | 0.892 | > 10.2 | 0.955 | > 20
5 | BT-483 (breast, adherent) | 0.969 | > 0.032 | 0.948 | > 20 | 0.967 | > 10 | 0.975 | > 10 | 0.878 | > 10.2 | 0.924 | > 20
6 | BxPC-3 (pancreas, adherent) | 0.455 | 0.00148 | 0.941 | > 20 | 0.958 | > 10 | 0.951 | > 10 | 0.794 | 5.39 | 0.621 | 2.81
7 | C3A (liver, adherent) | 0.578 | 0.0033 | 0.988 | > 20 | 0.988 | > 10 | 0.976 | > 10 | 0.988 | > 10.2 | 0.988 | > 20
8 | C32 (melanoma, adherent) | 0.98 | > 0.032 | 0.987 | > 20 | 0.398 | 0.322 | 0.611 | 1.29 | 0.987 | > 10.2 | 0.987 | > 20
9 | C-4-I (cervix, adherent) | 0.6 | 0.00386 | 0.948 | > 20 | 0.986 | > 10 | – | – | 0.966 | > 10.2 | 0.913 | > 20
10 | C-33-A (cervix, adherent) | 0.584 | 0.0034 | 0.864 | 17.5 | 0.976 | > 10 | 0.961 | > 10 | 0.9 | > 10.2 | 0.539 | 1.6
11 | CAKI-1 (kidney, adherent) | 0.684 | 0.00852 | 0.935 | > 20 | – | – | 0.935 | > 10 | 0.934 | > 10.2 | 0.751 | 9.76
12 | CAL-12T (non-small cell lung carcinoma, adherent) | 0.27 | 0.000405 | 0.934 | > 20 | 0.875 | > 10 | 0.917 | > 10 | 0.628 | 1.51 | 0.721 | 5.75
13 | CAL-27 (head and neck, adherent) | 0.345 | 0.000736 | 0.971 | > 20 | 0.98 | > 10 | 0.932 | > 10 | 0.787 | 4.53 | 0.879 | > 20
14 | CAL-29 (bladder, adherent) | 0.729 | 0.00952 | 0.974 | > 20 | 0.975 | > 10 | 0.938 | > 10 | 0.941 | > 10.2 | 0.947 | > 20
15 | CAL-33 (head and neck, adherent) | 0.478 | 0.00174 | 0.979 | > 20 | 0.912 | > 10 | 0.955 | > 10 | 0.923 | > 10.2 | 0.821 | 11.6
16 | CAL-39 (cervix, adherent) | 0.296 | 0.000521 | 0.915 | > 20 | 0.986 | > 10 | 0.975 | > 10 | 0.957 | > 10.2 | 0.937 | > 20
17 | CAL-51 (breast, adherent) | 0.446 | 0.00145 | 0.991 | > 20 | 0.985 | > 10 | 0.981 | > 10 | 0.971 | > 10.2 | 0.991 | > 20
18 | CAL-54 (kidney, adherent) | 0.895 | > 0.032 | 0.973 | > 20 | 0.941 | > 10 | 0.962 | > 10 | 0.978 | > 10.2 | 0.687 | 4.52
19 | CAL-62 (thyroid, adherent) | 0.305 | 0.000586 | 0.984 | > 20 | 0.965 | > 10 | 0.972 | > 10 | 0.921 | > 10.2 | 0.961 | > 20
20 | CAL-72 (osteosarcoma, adherent) | 0.916 | > 0.032 | 0.983 | > 20 | 0.873 | > 10 | 0.971 | > 10 | 0.984 | > 10.2 | 0.984 | > 20
21 | CAL-78 (chondrosarcoma, adherent) | 0.848 | 0.0294 | 0.887 | > 20 | 0.96 | > 10 | 0.952 | > 10 | 0.986 | > 10.2 | 0.916 | > 20
22 | CAL-85-1 (breast, adherent) | 0.361 | 0.000739 | 0.922 | > 20 | 0.962 | > 10 | 0.965 | > 10 | 0.806 | 7.03 | 0.753 | 8.42
